The test has as its system hypoxia-inducible endogenous VEGF expression. Kind of test: Hypoxia-inducible endogenous VEGF expression ELISA in HeLa cells, dose-response (EC50, Table 3). To be noted: read-out: ELISA EC50 μM, hypoxic conditions (1% O2, 5% CO2), VEGF protein by ELISA of conditioned media. A general note: In an ELISA, binding on a coated surface is turned into a signal by an enzyme label.

With `Cc1ccc(OC(=O)N2CCc3c([nH]c4ccc(Cl)cc34)[C@@H]2c2ccc(OCC(C)(CO)CO)cc2)cc1` [Compound 1297], the EC50 – broadly, the concentration needed to bring the measured effect to its halfway point – was in the range of 0.008 to 0.04 µM.

The values above are taken from patent US20120202801A1, “METHODS FOR TREATING BREAST CANCER” (priority 2009, published 2012).
